PubChem BioAssay AID588855 (National Center for Advancing Translational Sciences (NCATS), 2011)
Out of some 410,000 compounds screened, about 5,000 (1.2%) were called active. This list was built around the results that the source calls inconclusive (neither active nor inactive); the mix of calls is not that of the screen. Calls follow the shape of the dose curve; as a rule, active = well fitted inhibition curve with a large enough effect; inconclusive = small, poorly fitted or top-dose-only effect; inactive = no such curve, though single readings can be large or run the other way. Potencies beside an inconclusive call are fits to weak or partial responses and may not hold up.

assay: qHTS for Inhibitors of TGF-b; details: HepG2 CAGA-GFP TGF-b/SMAD3 reporter, GFP fluorescence, 18 h, TGF-beta stimulated, 500 pg/mL final; series mostly up to 46.1 µM; also: nearly all actives have a fitted effect of over 65% in size
Outline: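 Cell-based qHTS in HEPG2 carrying a CAGA-GFP Smad reporter; compounds added before 500 pg/mL final TGF-beta, 18 h incubation at 37 degrees C, GFP fluorescence quantified per cell by imaging cytometry.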
Potency is read from the fitted curve at half-maximal effect; tags tell the direction and shape of the fitted curve.

SMILES	Potency
COc1ccc2cc(C(c3nnnn3C3CCCC3)N3CCc4ccccc4C3)c(=O)[nH]c2c1 (configuration not stated)	inactive
CC12CCC(C(=O)Nc3ccccc3N3CCOCC3)(CC1=O)C2(C)C (configuration not stated)	inconclusive: 20 µM [inhibitor, single point]
CC(C)N=c1scc(-c2ccco2)n1/N=C/c1ccc(O)c(O)c1	inconclusive: 35.5 µM [inhibitor, single point]
N#Cc1ccccc1S(=O)(=O)N1CCN(c2nc(-c3cccnc3)nc3ccccc23)CC1	inactive
COc1ccc2c(Sc3ccccc3)c(C(=O)N3CCC(C)CC3)[nH]c2c1	active: 14.1 µM
COc1ccc(Nc2n[nH]c(N)c2C(N)=O)cc1	inactive
O=C(CSc1nc2ncc(Br)cc2[nH]1)c1ccc([N+](=O)[O-])cc1	inconclusive: 35.5 µM [inhibitor, single point]
O=C(Nc1ccccc1C(=O)NCc1cccnc1)c1ccccc1F	inactive
O=C1c2cccc3cccc(c23)N1Cc1cccc(F)c1	inactive
COc1ccc(-c2[nH]ncc2CNCc2cc(C)n(C)n2)c(F)c1	inconclusive: 7.08 µM [inhibitor, full curve]
CCOC(=O)N1CCN(C(=O)Cc2ccc(Cl)cc2)CC1	inconclusive: 22.4 µM [inhibitor, single point]
O=C(C1CCN(S(=O)(=O)N2CCC3(CC2)OCCO3)CC1)N1CCC(Cc2ccccc2)CC1	inactive
CCOc1ccc(N2C(=O)CC(NCCNc3ccc(C(=O)c4cccs4)cc3)C2=O)cc1 (configuration not stated)	inconclusive: 35.5 µM [inhibitor, single point]
C/C(=N\Nc1nc2ccccc2[nH]1)c1cccs1	inconclusive: 25.1 µM [inhibitor, single point]
Cc1cc(C)cc(NC(=S)N=Nc2c(O)n(C)c3ccc(S(=O)(=O)N4CCOCC4)cc23)c1	inconclusive: 2.82 µM [inhibitor, partial curve]
CC(C)C(=O)NC(c1cccs1)c1cc([N+](=O)[O-])c2cccnc2c1O (configuration not stated)	inconclusive: 35.5 µM [inhibitor, partial curve, poor fit]
O=C1CCCc2ccccc2N1Cc1ccc(Cl)cc1	inconclusive: 11.2 µM [inhibitor, partial curve]
COc1ccccc1Nc1nc(NCC(C)C)nc(N)c1[N+](=O)[O-]	inactive
O=C(Nc1ccccc1)c1ccccc1NS(=O)(=O)c1ccc(Cl)s1	active: 12.6 µM
O=C(CSc1ccccc1)NCCCN1CCOCC1	inactive
Cc1cc(C)c2c(=O)n3c(nc2c1)C(Cc1ccccc1)NC(=O)c1cccnc1-3 (configuration not stated)	inconclusive: 17.8 µM [inhibitor, single point]
CCOc1ccc(N=C/C=C/c2ccccc2)c(O)c1	active: 14.1 µM
CCOc1cc(/C=C/c2cc(C(F)(F)F)[nH]c(=O)n2)ccc1O	inconclusive: 11.2 µM [inhibitor, partial curve]

SMILES	Potency
Cc1cccc2cc(C#N)c(SCCN3CCCCC3)nc12	inconclusive: 3.98 µM [inhibitor, partial curve, poor fit]
O=C(Nc1cc(S(=O)(=O)N2CCOCC2)ccc1N1CCCC1)c1cc(F)c(F)cc1Cl	inconclusive: 3.98 µM [inhibitor, single point]
O=C(C[C@H]1C/C=C\CC[C@@H](Cc2ccc(F)cc2)C(=O)OC[C@H]2CCCN2C1=O)N[C@@H](CO)Cc1ccccc1	inconclusive: 5.01 µM [inhibitor, single point]
O=C(NCCCN1CCCCC1)c1ccc2c(c1)sc1nc(-c3ccc(F)cc3)cn12	inconclusive: 10 µM [inhibitor, single point]
OC(COc1ccc2ccccc2c1Br)Cn1cnc(-c2ccccc2)c1 (configuration not stated)	inconclusive: 35.5 µM [inhibitor, single point]
CCOC(=O)c1ccc(NC(=O)CS(=O)(=O)c2cn(CC)c3ccccc23)cc1	inconclusive: 35.5 µM [inhibitor, single point]
CCCn1c(=S)[nH]c2cc(C(=O)N3CCc4ccccc4C3)ccc2c1=O	inactive
Fc1ccc(CNC(=S)NC2CCCC2)cc1	inactive
CC1(C)Cc2nc3sc4c(=O)n(CC(N)=O)cnc4c3cc2CO1	inactive
COC(=O)CN1C(c2ccc(Cl)cc2)=Nc2ccc(Cl)cc2C1c1ccccc1 (configuration not stated)	inconclusive: 35.5 µM [inhibitor, single point]
O=S(=O)(Nc1cccc(-c2ccc(N3CCCCC3)nn2)c1)c1ccc(F)cc1F	inconclusive: 6.31 µM [inhibitor, single point]
O=C(Nc1ccc(F)c(F)c1)c1ccc(F)c(S(=O)(=O)N2CCC3(CC2)OCCO3)c1	inactive
CCN(Cc1ccccc1)S(=O)(=O)c1ccc(OC)cc1	inconclusive: 10 µM [inhibitor, partial curve, poor fit]
O=C(Nc1cccc(C(F)(F)F)c1)C1Cc2c(-c3ccc(Cl)cc3)ccnc2O1 (configuration not stated)	active: 8.91 µM
Cc1cccc(N=c2oc3cc(O)ccc3cc2C(N)=O)c1	inconclusive: 0.112 µM [inhibitor, full curve, poor fit]
CCCc1nc(SCC(=O)N2CCCc3ccccc32)c2c(=O)n(C)c(=O)n(C)c2n1	inconclusive: 3.55 µM [inhibitor, single point]
COC(=O)c1ccccc1NC(=O)CCc1c(C)nc2cc(-c3ccc(Cl)cc3)nn2c1C	inactive
O=C(Nc1nc2ccccc2n1Cc1ccccc1)c1ccc(COc2ccccc2[N+](=O)[O-])o1	inactive
CSc1nc(=S)n(-c2ccc([N+](=O)[O-])cc2)c(C)c1C(C)=O	inactive
CC(C)(C)c1cc(NCCCn2ccnc2)n2ncc(-c3ccc(Cl)cc3)c2n1	inconclusive: 35.5 µM [inhibitor, single point]
CC(=O)c1cc(-c2ccc(F)cc2)n(CCC(=O)NC2CCCCC2)c1C	inconclusive: 11.2 µM [inhibitor, partial curve, poor fit]
O=C(NCc1ccccc1)c1ccc(Br)cc1Br	inconclusive: 35.5 µM [inhibitor, single point]
Cc1ccc(-c2nnc(Nc3ccc(O)cc3)c3ccccc23)cc1S(=O)(=O)NCCO	inconclusive: 22.4 µM [inhibitor, single point]

SMILES	Potency
CN(C)S(=O)(=O)N1CCC(Oc2cccc(C(=O)NCCCC3CCCC3)c2)CC1	inconclusive: 11.2 µM [inhibitor, partial curve, poor fit]
CCC(C(=O)NCCc1ccc(SC)cc1)n1nc(C)c2c(C)n(-c3ccc(C)cc3)nc2c1=O (configuration not stated)	inconclusive: 11.2 µM [inhibitor, partial curve, poor fit]
COc1ccc(OCc2cc(C(=O)N3CCN(CC4CC4)CC3)no2)c(Cl)c1	inconclusive: 6.31 µM [inhibitor, single point]
CCCCCOc1ccc(NC(=O)CSc2cccc3cccnc23)cc1	inconclusive: 6.31 µM [inhibitor, full curve, poor fit]
Cc1ccc(CCNC(=O)c2ccc(CSc3nc4ccncc4n3Cc3ccc(F)cc3)cc2)cc1	inconclusive: 11.2 µM [inhibitor, partial curve]
O=C(NCCOc1ccc(Cl)cc1)c1cccc(S(=O)(=O)N2CCCC2)c1	inactive
CC(C)C[C@H](NC(=O)c1nc[nH]c1C(=O)NCC(=O)OC(C)(C)C)C(=O)OCc1ccccc1	active: 11.2 µM
O=C(NCC1CCN(Cc2ccccc2F)CC1)Nc1cccc(Br)c1	inconclusive: 4.47 µM [inhibitor, partial curve, poor fit]
COc1cc(/C=C2\CC/C(=C\c3cc(OC)c(OC)c(OC)c3)C2=O)cc(OC)c1OC	inconclusive: 7.08 µM [inhibitor, partial curve, poor fit]
CCOC(=O)N1CCN(S(=O)(=O)c2ccc(OC)c(Br)c2)CC1	inconclusive: 22.4 µM [inhibitor, single point]
CC1(C)CNC(=O)c2sc(N3CCOCC3)nc2C1	inactive
CC(=O)Nc1cccc(-c2cc(NC(C)=O)c3ncc(-c4ccccc4)n3c2)c1	inconclusive: 22.4 µM [inhibitor, single point]
CC(C)(C)C(=O)NC(Nc1cccc2cccnc12)C(Cl)(Cl)Cl (configuration not stated)	inconclusive: 35.5 µM [inhibitor, single point]
CO/C(N)=C(\C#N)N=Cc1ccccc1Cl	inactive
Cc1ccc(-c2noc(CSc3nnnn3C3CCCCC3)n2)cc1	inactive
CCCc1[nH]nc2c1C(c1cn[nH]c1-c1ccc(F)cc1)C(C#N)=C(N)O2 (configuration not stated)	inconclusive: 22.4 µM [inhibitor, single point]
CC(=O)C1=CCC(c2ccc(Cl)cc2)N(S(=O)(=O)c2ccc(C)cc2)C1 (configuration not stated)	inconclusive: 8.91 µM [inhibitor, partial curve, poor fit]
C#CCN(Cc1ccccc1)S(=O)(=O)C=C	inconclusive: 35.5 µM [inhibitor, single point]
COc1ccc(Br)c(Cn2c(C)c(C(=O)NCc3cccc([N+](=O)[O-])c3)sc2=O)c1	inconclusive: 35.5 µM [inhibitor, single point]
Cc1nn(-c2ccccc2)c(Cl)c1/C=N/Nc1ccc(S(=O)(=O)Nc2ccccc2C(=O)O)cc1[N+](=O)[O-]	inconclusive: 35.5 µM [inhibitor, single point]
Cc1cc(C)cc(OCC(=O)N2N=C(C(F)(F)F)CC2(O)C(C)(C)C)c1 (configuration not stated)	inconclusive: 22.4 µM [inhibitor, single point]
